Measured values published in the supplement of paper PMC4166925.
± gives the standard deviation of the averaged measurements. The full ranking holds about 33,000 sequences; the median of “E-score (dimensionless, -0.5 to 0.5)” is about -0.049, and the highest 2% start at about 0.37. This is one part of the list.

tested on: T1, PmTbr T-box DNA-binding domain (GST fusion); experiment: PBM E-score of 8-mer (E-score (dimensionless, -0.5 to 0.5)); Tbr is Tbrain of the sea star Patiria miniata (Pm) or the sea urchin Strongylocentrotus purpuratus (Sp); higher = stronger binding preference; most listed sequences are background and not binding sites; conditions: the construct has about 5 more residues each side
T1 sequence: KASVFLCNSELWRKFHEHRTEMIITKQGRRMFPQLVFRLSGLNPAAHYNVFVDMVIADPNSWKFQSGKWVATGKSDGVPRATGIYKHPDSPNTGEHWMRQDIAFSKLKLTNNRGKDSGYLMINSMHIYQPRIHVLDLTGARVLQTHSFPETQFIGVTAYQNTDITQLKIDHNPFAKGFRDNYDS
Experimental: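 Universal protein-binding microarray (Agilent AMADID 016060, 60-bp probes with a 35-bp variable region) incubated with 200 nM GST-fused Patiria miniata Tbr T-box DNA-binding domain (residues 272-466) in PBS pH 7.5. Scored for every ungapped 8-mer (given with its reverse complement) by the Universal PBM Analysis Suite as E-score (modified Wilcoxon-Mann-Whitney enrichment, range -0.5 to 0.5; >0.45 counts as bound) and Z-score of median probe intensity. Two replicate arrays (datasets 1 and 2).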
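Note: 200 nM protein in PBS on universal arrays averaged over duplicate arrays.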

| Sequence | PBM E-score of 8-mer |
| --- | --- |
| CAGTGGTC | -0.208 ± 0.12 |
| GGTCCTGA | -0.164 ± 0.0018 |
| CCTTATAC | -0.09 ± 0.078 |
| CAGTCACG | 0.143 ± 0.0015 |
| CCTGGTAG | -0.213 ± 0.03 |
| CACACGCA | 0.201 ± 0.052 |
| CACACCGG | 0.135 ± 0.057 |
| CTGCTGGC | 0.000885 ± 0.013 |
| AAATATTT | -0.0394 ± 0.0084 |
| ACCGTCCG | -0.0852 ± 0.062 |
| CCACTCTA | -0.0635 ± 0.066 |
| AATTTTCA | 0.0506 ± 0.061 |
| GACACTCA | 0.28 ± 0.0035 |
| ACAGCTTG | 0.152 ± 0.05 |
| ACTCCACT | -0.128 ± 0.036 |
| CTGCCAGA | -0.131 ± 0.0021 |
| TAATGCGA | 0.0983 ± 0.054 |
| CTTTCACC | 0.14 ± 0.034 |
| ATATACCG | -0.0946 ± 0.014 |
| CGCAGCTA | 0.0474 ± 0.067 |
| AGTACACC | 0.0441 ± 0.02 |
| CTTACTAA | -0.116 ± 0.036 |

| Sequence | PBM E-score of 8-mer |
| --- | --- |
| GATGAGAC | -0.0112 ± 0.048 |
| CGGGTCAG | -0.124 ± 0.11 |
| CGCGAAAG | 0.3697 ± 0.0008 |
| CTGCCTTC | -0.03 ± 0.015 |
| GCTCACCC | -0.043 ± 0.073 |
| AAGCCCAT | -0.223 ± 0.034 |
| AAGGCCAA | -0.2375 ± 0.00042 |
| AACATCAT | -0.215 ± 0.028 |
| AGACCTAT | -0.2143 ± 0.00038 |
| CCTATTGA | -0.205 ± 0.019 |
| CATCCAGC | 0.0928 ± 0.028 |
| CCATGGCC | -0.263 ± 0.011 |
| AGGCGTCC | 0.0614 ± 0.039 |
| GGCGGAAC | -0.129 ± 0.0067 |
| GAGCTAGA | -0.00238 ± 0.087 |
| AACAAAAG | 0.0585 ± 0.05 |
| GACTCTTA | -0.0591 ± 0.013 |
| CCCTGAAC | -0.0373 ± 0.033 |
| CTCTGAGA | -0.176 ± 0.035 |
| ACAATCAT | 0.0609 ± 0.022 |
| AAGCGAAG | 0.0228 ± 0.014 |
| ATGTCTTG | 0.0183 ± 0.028 |

| Sequence | PBM E-score of 8-mer |
| --- | --- |
| AGTGAATG | 0.102 ± 0.0097 |
| TACGATCA | -0.165 ± 0.029 |
| GCGCAAGA | 0.023 ± 0.075 |
| ATAGCGCA | 0.231 ± 0.055 |
| CGTGTATA | -0.117 ± 0.033 |
| GACATAGA | -0.0946 ± 0.012 |
| TACCGCCA | 0.14 ± 0.035 |
| CTCAAAAG | -0.123 ± 0.014 |
| CGTATGCC | -0.241 ± 0.0056 |
| GCGCCAGA | 0.161 ± 0.022 |
| TCCATTAA | -0.219 ± 0.021 |
| GTATCCAC | 0.0223 ± 0.03 |
| TTAGCAAA | 0.173 ± 0.064 |
| AAAGTGCG | 0.315 ± 0.013 |
| ATTCATAG | -0.258 ± 0.052 |
| CAATTGGC | 0.0686 ± 0.013 |
| ACCGAACA | 0.124 ± 0.11 |
| CCGGAGCA | -0.174 ± 0.073 |
| GCTTGTAC | -0.129 ± 0.0078 |
| AGCTCTGC | -0.103 ± 0.062 |
| TGTACAAA | -0.171 ± 0.0051 |
| AGAGTTAG | -0.0219 ± 0.0028 |

| Sequence | PBM E-score of 8-mer |
| --- | --- |
| CTGTATAA | -0.15 ± 0.071 |
| AGCTTGCG | 0.0999 ± 0.037 |
| AATGTAGA | -0.232 ± 0.087 |
| AAATTAAT | -0.0745 ± 0.12 |
| TGACGCCA | 0.257 ± 0.0061 |
| CCTACACC | 0.252 ± 0.042 |
| GCCTTAGA | -0.238 ± 0.016 |
| CATATGGA | -0.1183 ± 0.00071 |
| GAGCCGAC | 0.00453 ± 0.026 |
| CGCCTATA | 0.0393 ± 0.012 |
| CTGAGAAG | -0.0799 ± 0.011 |
| ATTGCCCA | -0.0817 ± 0.017 |
| ACTAACCC | 0.0626 ± 0.018 |
| GACGGAGA | -0.143 ± 0.043 |
| AGTCATCG | -0.153 ± 0.0094 |
| TCGTGTAA | 0.0789 ± 0.0091 |
| AGATTCCT | -0.103 ± 0.11 |
| GCCTATAC | -0.288 ± 0.052 |
| AAACGATT | -0.101 ± 0.0011 |
| CAGCGAGG | 0.0797 ± 0.025 |
